Source: publication PMC4336329 (PLoS ONE, 2015)
In all, about 310,000 compounds went through this assay and about 2,200 (0.71%) showed an effect of 50% or more. Effects have a minus sign here. The list shows a part of the results.

target: human ether-à-go-go-related gene (hERG) potassium channel (human, UniProt Q12809); experiment: primary screen, population patch clamp on CHO cells stably expressing hERG
Sequence (Q12809 whole entry, looked up): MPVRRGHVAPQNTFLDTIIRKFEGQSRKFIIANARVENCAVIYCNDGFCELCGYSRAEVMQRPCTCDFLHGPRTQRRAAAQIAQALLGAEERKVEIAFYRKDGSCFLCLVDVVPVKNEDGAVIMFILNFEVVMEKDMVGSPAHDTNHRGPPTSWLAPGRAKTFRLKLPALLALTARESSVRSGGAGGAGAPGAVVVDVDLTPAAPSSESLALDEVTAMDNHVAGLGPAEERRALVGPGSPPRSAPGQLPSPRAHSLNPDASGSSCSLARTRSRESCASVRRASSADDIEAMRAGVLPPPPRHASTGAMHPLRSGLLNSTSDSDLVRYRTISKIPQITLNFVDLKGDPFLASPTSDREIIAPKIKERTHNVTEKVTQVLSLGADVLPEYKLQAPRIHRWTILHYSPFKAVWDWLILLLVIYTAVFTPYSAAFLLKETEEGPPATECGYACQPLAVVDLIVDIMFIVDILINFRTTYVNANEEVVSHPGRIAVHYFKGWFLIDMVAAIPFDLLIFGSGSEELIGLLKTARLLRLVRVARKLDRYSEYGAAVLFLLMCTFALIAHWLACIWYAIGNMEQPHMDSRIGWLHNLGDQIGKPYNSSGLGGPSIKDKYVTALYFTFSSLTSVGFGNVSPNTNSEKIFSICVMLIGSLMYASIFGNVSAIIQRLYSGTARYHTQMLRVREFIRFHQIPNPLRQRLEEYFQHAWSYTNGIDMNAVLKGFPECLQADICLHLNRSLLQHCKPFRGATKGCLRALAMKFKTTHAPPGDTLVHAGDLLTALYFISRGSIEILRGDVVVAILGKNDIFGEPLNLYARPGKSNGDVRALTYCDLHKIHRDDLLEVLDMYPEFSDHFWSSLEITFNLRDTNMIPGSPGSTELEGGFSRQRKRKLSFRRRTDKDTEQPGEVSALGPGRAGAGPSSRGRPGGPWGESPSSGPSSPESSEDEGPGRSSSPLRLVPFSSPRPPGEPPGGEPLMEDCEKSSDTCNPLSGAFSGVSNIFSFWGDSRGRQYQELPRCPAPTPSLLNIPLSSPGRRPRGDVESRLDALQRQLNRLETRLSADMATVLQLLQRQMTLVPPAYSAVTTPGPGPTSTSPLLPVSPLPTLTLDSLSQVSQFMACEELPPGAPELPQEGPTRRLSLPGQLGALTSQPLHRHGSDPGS

Compound	hERG current change (%, negative = inhibition) at 1uM
CCCn1nc(Oc2nc(SC)nc(N(C)C)n2)ccc1=O	-6.02%
CN(C)S(=O)(=O)c1cccc(C(=O)Nc2cc3c(cc2C(=O)O)OCCCO3)c1	9.57%
O=C(NCc1ccc2c(c1)OCO2)C1CCC(=O)N1C1CCCCC1 (stereo not drawn)	-4.01%
CCOc1ccc2[nH]c(=O)c(=O)[nH]c2c1	-0.103%
COc1cc(C(=O)NNC(=O)CSc2nnc3ccccn23)cc(OC)c1OC	15.2%
O=C(NCCOC(=O)c1ccc(F)cc1)c1ccc(F)cc1	4.03%
O=C(O)CCN1C(=O)C2C3CC(C2C1=O)C1C(c2ccccc2)c2sc(=O)[nH]c2SC31 (stereo not drawn)	-2.08%
CC(=O)Nc1ccccc1NS(=O)(=O)c1ccc(Cl)cc1	3.75%
COc1cccc(-c2ccnc3[nH]n(-c4ccccc4)c(=O)c23)c1	21.3%
COc1cc(NC(=O)CSc2nccc(C)n2)c(C)cc1[N+](=O)[O-]	4.63%
CN(C)CCCn1c(-c2ccccc2)nc(=S)c2c1CCCC2	11.9%
Cc1ccc(CNC(=O)c2nnc(CS(=O)(=O)c3ccccc3)o2)cc1	8.37%
C=CCNC(=O)c1onc(CSc2cccc(OC)c2)c1C(=O)NCC=C	18.8%
CC(=O)Nc1ccc(S(=O)(=O)NNC(=O)c2ccc([N+](=O)[O-])cc2)cc1	9.64%
CC1CCN(C(=O)CCNC(=O)c2ccccc2)CC1	15.5%
CSc1ccc(NC(=O)/C=C/C(=O)O)cc1	11.5%
CCOC(=O)c1cc(-c2csc(Nc3ccccc3Cl)n2)on1	5.25%
CCCNCC1C(Oc2ccc(Cl)cc2)C(=O)N1c1ccccc1C (stereo not drawn)	-17.4%
CN(Cc1ccccc1)C(=O)c1cc2cc(F)ccc2[nH]1	12.9%

Compound	hERG current change (%, negative = inhibition) at 1uM
CCNC(=O)COC(=O)c1cccc(Br)c1	11.9%
CCOC(=O)C1CCN(C(=O)c2ccccc2NC(=O)C2=C(C)OCCS2)CC1	15.7%
O=C(CN(Cc1ccco1)C(=O)CCC(=O)Nc1nccs1)NCc1ccccc1	5.05%
CC(=O)NCCC(=O)Nc1ccc(F)cc1C	14.5%
O=C(CSc1nnc(-c2ccncc2)n1-c1ccc(Cl)cc1)Nc1ccc(C(=O)O)cc1	15.5%
CCOC(=O)[C@H]1[C@H]2COc3ccc(OC)cc3[C@@H]2N2C(=O)CN(Cc3ccc(Cl)cc3)C(=O)[C@@]12C	12.9%
O=C(NCCSc1ccccc1)c1ccccc1	16.1%
Cc1cc(C)c2sc(N(CCN(C)C)C(=O)c3ccc4ccccc4c3)nc2c1.Cl	8.52%
C/C(=N\NC(=O)c1ccc2c(c1)OCO2)c1cccnc1	18.9%
c1ccc2c3c(cc(N4CCOCC4)c2c1)OC1(N2CCOCC2)CCCCC1O3 (stereo not drawn)	3.37%
COc1cccc(NC(=O)COC(=O)COc2cccc3c2OC(C)(C)C3)c1	1.05%
COc1ccc(CC(=O)N(CCC2=CCCCC2)c2c(N)n(Cc3ccccc3)c(=O)[nH]c2=O)cc1OC	7.08%
CCOC(=O)C1(Cc2ccc(OC)cc2)CCN(C(=O)c2sc(C)nc2C)CC1	15.2%
CCOc1ccc(C(=O)c2ccncc2)cc1	17.2%
COc1ccc(Cl)cc1N1C(=O)c2cccnc2C1=O	14.3%
CC1CC(C(=O)Nc2ccccc2)C(=O)O1 (stereo not drawn)	13.9%
O=c1nc(-c2ccccc2)cn[nH]1	-0.726%
O=C1NC(=O)N(Cc2ccco2)C(=O)/C1=C/c1ccc(-c2cccc([N+](=O)[O-])c2)o1	6.53%
COc1cc(C)ccc1OCc1cc(C(=O)NCCN2CCCC(O)C2)no1 (stereo not drawn)	1.51%

Compound	hERG current change (%, negative = inhibition) at 1uM
O=C(Cc1coc2cc3c(cc12)CCC3)OCc1cc(=O)n2c(n1)sc1ccccc12	6.78%
CCCn1c(CCNC(=O)c2cccs2)nc2ccccc21	-5.46%
O=C(NCc1cccs1)c1cccn2c(=O)c3sccc3nc12	-0.662%
Cc1cc(C)n2nc(C(=O)NCc3ccccc3)nc2n1	-0.707%
CC1=C(C(=O)OCc2ccccc2)C(c2cccc3ccccc23)NC(=O)N1CCCC(=O)O (stereo not drawn)	21.4%
COc1ccc(CCNC(=O)CCN2C(=O)[C@@H]3Cc4ccccc4CN3C2=O)cc1OC	21.2%
CCOCCCNC(=O)C(NC(=O)CC1NC(=O)NC1=O)c1ccc(Cl)cc1 (stereo not drawn)	2.3%
CC1=C(C(=O)Nc2ccccc2C)C2(CCCCC2)C(C(N)=O)C(=S)N1 (stereo not drawn)	-1.61%
CCCCN(Cc1nc2ccccc2c(=O)[nH]1)C(=O)CN1C(=O)NC2(CCCCC2)C1=O	-7.66%
O=C(CCS(=O)(=O)c1ccc(Cl)cc1)N1CCN(c2ccccc2F)CC1	0.539%
Oc1ccc2c(ccc3[nH]cnc32)c1	19.6%
CN(CC(=O)Nc1ccccc1Br)C(=O)c1ccc2c(=O)n3c(nc2c1)CCC3	6.85%
CCC(C)C(=O)Nc1nc(C)c(-c2csc(Nc3cc(Cl)ccc3OC)n2)s1 (stereo not drawn)	10.8%
O=C(C[n+]1ccccc1)N1CCCc2ccccc21.[Cl-]	12%
Cn1cc(SCC(=O)N2CCOCC2)c2ccccc21	10.6%
Cc1ccnc(NS(=O)(=O)c2ccc(NC(=O)COc3ccccc3)cc2)n1	20.7%
Cc1cccc(N2CCN(C(=O)c3ccc(NS(=O)(=O)c4c(C)noc4C)cc3)CC2)c1C	-2.07%
CC(=O)Nc1ccc(NC(=O)C(C)Oc2ccc(Cl)cc2Cl)cc1 (stereo not drawn)	12.2%
COc1ccc(Br)cc1C(=O)NC(=S)Nc1cc(-c2nc3ccccc3[nH]2)ccc1C	6.11%
